About 220 (0.56%) of roughly 39,000 compounds showed activity. The list shows a part of the results.
test system: Escherichia coli K-12 BW25113; assay: relative growth (OD600 normalised to plate interquartile mean) (fraction); higher = less growth inhibition, active = 0.2 or less; settings: 50 µM; LB; incubation time: overnight (16-24 h)
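Further: static incubation at 37 °C against the wild-type strain, values averaged over two biological replicates.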

How did the relative growth turn out when `NCc1cccc2c1OCC2` was run?
Its relative growth is inactive: 0.997.

How did the relative growth turn out when `Cc1noc(C)c1S(=O)(=O)N(C)C[C@@H]1Oc2ccc(NS(=O)(=O)c3ccc(F)cc3)cc2C(=O)N([C@H](C)CO)C[C@@H]1C` was run?
The relative growth was inactive: 1.02.

For `Cc1cc(C(=O)Nc2cccc3c2O[C@H](CN(C)Cc2ccc(C(=O)O)cc2)[C@H](C)CN([C@@H](C)CO)C3=O)n(C)n1`, which relative growth is on record?
Its relative growth is inactive: 0.994.

For `COc1cccc2c1C(=O)c1c(O)c3c(c(O)c1C2=O)C[C@](O)(C(=O)CO)C[C@H]3O[C@H]1C[C@@H](N)[C@@H](O)[C@@H](C)O1`, which relative growth is on record?
The relative growth was inactive: 0.945.

Which relative growth does the source give for `COc1ccc(S(=O)(=O)N(C)C[C@H]2Oc3ccc(NS(=O)(=O)c4cccs4)cc3CC(=O)N([C@H](C)CO)C[C@H]2C)cc1` here?
The relative growth was inactive: 0.993.

`C[C@H]1CN([C@@H](C)CO)C(=O)c2cc(NC(=O)C3CC3)ccc2O[C@H]1CN(C)Cc1ccc(Oc2ccccc2)cc1` was tested. Which relative growth did it give?
The relative growth was inactive: 1.

`CC(C)NC(=O)N(C)C[C@H]1Oc2ccc(NC(=O)CCN3CCOCC3)cc2C(=O)N([C@H](C)CO)C[C@H]1C` was tested. Which relative growth did it give?
The relative growth was inactive: 0.994.

For `COc1ccc(NC(=O)N(C)C[C@H]2Oc3ccc(NS(C)(=O)=O)cc3CC(=O)N([C@H](C)CO)C[C@@H]2C)cc1`, which relative growth is on record?
The relative growth was inactive: 1.03.

`CCOC(=O)N(C)C[C@@H]1OCc2cn(nn2)CCCC(=O)N([C@H](C)CO)C[C@@H]1C` was tested. Which relative growth did it give?
The relative growth was inactive: 0.98.

With `C[C@H](CO)N1C[C@H](C)[C@@H](CN(C)C(=O)Nc2ccc(F)cc2)Oc2ccc(NC(=O)CCCCCC(=O)Nc3ccccc3N)cc2CC1=O` as the compound, how does the relative growth read?
The relative growth was inactive: 1.

For `O=C(N[C@@H]1CC[C@H](CCn2cc(C3(O)CCCC3)nn2)O[C@H]1CO)C1CCOCC1`, which relative growth is on record?
Its relative growth is inactive: 0.964.

How did the relative growth turn out when `C[C@@H]1CN([C@@H](C)CO)C(=O)c2cc(NS(=O)(=O)c3ccc(F)cc3)ccc2O[C@H]1CN(C)S(=O)(=O)c1cn(C)cn1` was run?
Its relative growth is inactive: 1.

Which relative growth does the source give for `C[C@@H]1CN([C@@H](C)CO)C(=O)Cc2cc(NC(=O)Nc3cccc4ccccc34)ccc2O[C@@H]1CN(C)Cc1ccc(C(F)(F)F)cc1` here?
The relative growth was inactive: 1.03.

`C[C@H]1O[C@@H](O[C@H]2CC[C@@]3(C)[C@@H](CC[C@@]4(C)[C@@H]3CC=C3[C@H]5C[C@](C)(C(=O)O)CC[C@]5(C(=O)O[C@H]5O[C@@H](CO)[C@@H](O)[C@@H](O)[C@@H]5O)CC[C@@]34C)[C@@]2(C)CO)[C@@H](O)[C@@H](O[C@H]2O[C@@H](CO)[C@@H](O)[C@@H](O)[C@@H]2O)[C@@H]1O` was tested. Which relative growth did it give?
Its relative growth is inactive: 1.01.

`C[C@H](CO)N1C[C@H](C)[C@@H](CN(C)C(=O)Nc2cccc3ccccc23)Oc2ccc(NC(=O)Nc3ccccc3)cc2CC1=O` was tested. Which relative growth did it give?
Its relative growth is inactive: 0.993.

How did the relative growth turn out when `C=CC[C@@H](CC(=O)N[C@H](CO)Cc1ccccc1)C(=O)N[C@@H](COC(=O)[C@@H](CC=C)NC(=O)OCC1c2ccccc2-c2ccccc21)Cc1c[nH]c2ccccc12` was run?
Its relative growth is inactive: 1.02.

How did the relative growth turn out when `CN1C(=O)[C@H]2[C@H](C1=O)[C@H]1C=C(c3ccc(CO)cc3)[C@@H]2[C@H](c2cccs2)N1Cc1cccc(OC(F)(F)F)c1` was run?
Its relative growth is inactive: 1.04.

With `CC(C)NC(=O)N(C)C[C@@H]1Oc2ccc(NC(=O)Nc3ccc4c(c3)OCO4)cc2CC(=O)N([C@H](C)CO)C[C@@H]1C` as the compound, how does the relative growth read?
The relative growth was inactive: 1.

For `CO[C@H]1CN(C)C(=O)c2cc(NC(=O)Nc3cccc(Cl)c3)ccc2OC[C@@H](C)N(C(=O)Nc2c(C)noc2C)C[C@@H]1C`, which relative growth is on record?
Its relative growth is inactive: 0.983.

How did the relative growth turn out when `COC(=O)[C@@H]1C(=O)NC[C@H]1c1ccccc1` was run?
The relative growth was inactive: 0.997.

How did the relative growth turn out when `C[C@H]1CN([C@@H](C)CO)C(=O)Cc2cc(NS(C)(=O)=O)ccc2O[C@H]1CN(C)S(=O)(=O)c1cn(C)cn1` was run?
Its relative growth is inactive: 1.02.

For `CCCNC(=O)C[C@H]1CC[C@@H]2[C@@H](COc3ccc(NC(=O)c4ccc5c(c4)OCO5)cc3C(=O)N2C)O1`, which relative growth is on record?
Its relative growth is inactive: 0.972.

With `C[C@@H]1CN([C@H](C)CO)C(=O)c2cccc(NC(=O)c3ccc(-c4nccs4)cc3)c2O[C@@H]1CN(C)CC1CCCCC1` as the compound, how does the relative growth read?
The relative growth was inactive: 1.03.

How did the relative growth turn out when `C[C@H](CO)N1C[C@H](C)[C@@H](CN(C)Cc2ccccc2)Oc2ccc(NC(=O)Cn3cnnn3)cc2C1=O` was run?
Its relative growth is inactive: 0.94.

For `O=C(C[C@@H]1C=C[C@@H](NC(=O)CN2CCOCC2)[C@@H](CO)O1)NCc1cccc(F)c1`, which relative growth is on record?
Its relative growth is inactive: 1.05.

For `Cc1ccc(S(=O)(=O)Nc2cccc3c2O[C@@H](CN(C)C(=O)Nc2ccc(C(F)(F)F)cc2)[C@H](C)CN([C@H](C)CO)C3=O)cc1`, which relative growth is on record?
Its relative growth is inactive: 0.992.

With `COc1ccc(CN(C)C[C@H]2OCCCC[C@@H](C)Oc3ccc(NC(=O)Nc4c(C)noc4C)cc3C(=O)N([C@@H](C)CO)C[C@@H]2C)cc1` as the compound, how does the relative growth read?
Its relative growth is inactive: 0.993.

How did the relative growth turn out when `COc1ccc2c3c(n(c2c1)C)[C@H](CO)N(CC1CCOCC1)C[C@]13CN(C1)C(=O)c1cccc(c1)F` was run?
The relative growth was inactive: 1.02.

With `CC(=O)OC(C)C[N+](C)(C)C.[Cl-]` (stereo unspecified) as the compound, how does the relative growth read?
The relative growth was inactive: 0.98.

`COc1cccc(S(=O)(=O)N2C[C@@H](O)COC[C@H]3O[C@@H](CC(=O)N4CCN(c5ccccc5)CC4)CC[C@@H]32)c1` was tested. Which relative growth did it give?
Its relative growth is inactive: 0.995.

With `COc1ccc(NC(=O)N(C)C[C@@H]2Oc3c(NC(=O)c4cc(C)nn4C)cccc3C(=O)N([C@H](C)CO)C[C@H]2C)cc1` as the compound, how does the relative growth read?
The relative growth was inactive: 0.995.

For `COc1ccc(NC(=O)N(C)C[C@H]2Oc3ccc(NC(=O)CCN4CCOCC4)cc3C(=O)N([C@@H](C)CO)C[C@H]2C)cc1`, which relative growth is on record?
The relative growth was inactive: 0.952.

`Cc1noc(C)c1NC(=O)N(C)C[C@@H]1OCCCC[C@@H](C)Oc2ccc(NS(=O)(=O)c3ccccc3)cc2C(=O)N([C@@H](C)CO)C[C@H]1C` was tested. Which relative growth did it give?
Its relative growth is inactive: 0.999.

How did the relative growth turn out when `O=C(Cn1cc(COc2ccc(Cl)c(Cl)c2)nn1)NS(=O)(=O)c1cccc(OC(F)F)c1` was run?
Its relative growth is inactive: 0.989.

Which relative growth does the source give for `C[C@@H]1CCCCO[C@@H](CN(C)Cc2ccc3c(c2)OCO3)[C@@H](C)CN([C@@H](C)CO)C(=O)c2cc(NC(=O)Nc3cccc4ccccc34)ccc2O1` here?
The relative growth was inactive: 0.993.

How did the relative growth turn out when `O=C(CCCCCCC(=O)Nc1ccccc1O)N/N=C/[C@H](O)[C@@H](O)[C@H](O)CO` was run?
Its relative growth is inactive: 0.999.

Which relative growth does the source give for `COc1ccc(CN(C)C[C@H]2OCCCC[C@@H](C)Oc3ccc(NC(=O)Nc4c(C)noc4C)cc3C(=O)N([C@@H](C)CO)C[C@H]2C)cc1` here?
The relative growth was inactive: 1.

With `COc1ccc(C#Cc2ccc3c(c2)[C@]2(C(=O)N3)[C@H](c3ccccc3OCCO)N3[C@H](c4ccccc4)[C@H](c4ccccc4)OC(=O)[C@H]3[C@@H]2C(=O)N2CCN(c3ncccn3)CC2)cc1` as the compound, how does the relative growth read?
The relative growth was inactive: 1.1.

How did the relative growth turn out when `CC1(C)[C@H]2CC[C@@]1(C(=O)O)C(=O)C2=O` was run?
Its relative growth is inactive: 0.99.

`Cc1noc(C)c1NC(=O)Nc1ccc2c(c1)C(=O)N([C@H](C)CO)C[C@H](C)[C@@H](CN(C)C(=O)Nc1ccccc1)OCCCC[C@@H](C)O2` was tested. Which relative growth did it give?
The relative growth was inactive: 1.01.

Which relative growth does the source give for `O=C(NO)c1ccc(-c2cn(CC[C@@H]3OC(=O)[C@H](Cc4ccccc4)N4CC5=CC(=O)[C@H](C6CC6)[C@H]5[C@H]34)nn2)cc1` here?
The relative growth was inactive: 0.991.

For `C[C@@H]1CN([C@@H](C)CO)C(=O)CCCn2cc(nn2)CO[C@@H]1CN(C)S(=O)(=O)c1ccc(Cl)cc1`, which relative growth is on record?
Its relative growth is inactive: 1.01.

For `COc1ccc(NC(=O)N(C)C[C@@H]2OCCCC[C@H](C)Oc3ccc(NC(=O)C4CCCCC4)cc3C(=O)N([C@H](C)CO)C[C@H]2C)cc1`, which relative growth is on record?
The relative growth was inactive: 0.952.

For `Cc1ccc(S(=O)(=O)N(C)C[C@@H]2OCCCC[C@H](C)Oc3ccc(NC(=O)c4ccccc4)cc3C(=O)N([C@H](C)CO)C[C@H]2C)cc1`, which relative growth is on record?
The relative growth was inactive: 0.952.

With `Cc1noc(C)c1NC(=O)Nc1ccc2c(c1)C(=O)N([C@@H](C)CO)C[C@H](C)[C@@H](CN(C)C(=O)Nc1ccc3c(c1)OCO3)OCCCC[C@H](C)O2` as the compound, how does the relative growth read?
The relative growth was inactive: 0.997.

Which relative growth does the source give for `Cc1noc(C)c1S(=O)(=O)Nc1ccc2c(c1)C(=O)N([C@H](C)CO)C[C@H](C)[C@H](CN(C)S(=O)(=O)c1cccs1)O2` here?
The relative growth was inactive: 1.

Which relative growth does the source give for `Cc1cn2c3c(=O)n(C)c(=O)n(C)c3nc2n1CCN1CCOCC1` here?
The relative growth was inactive: 1.01.

For `CNC(=O)Cn1cc2c(n1)CC[C@H](C)C2`, which relative growth is on record?
The relative growth was inactive: 0.976.

For `CNC(=O)[C@H]1O[C@H](n2cnc3c(NCc4cccc(I)c4)ncnc32)[C@@H](O)[C@@H]1O`, which relative growth is on record?
Its relative growth is inactive: 1.02.

With `C[C@@H]1CN([C@@H](C)CO)C(=O)c2cc(NC(=O)Nc3ccc(F)cc3)ccc2O[C@@H](C)CCCCO[C@H]1CN(C)CC1CCCCC1` as the compound, how does the relative growth read?
The relative growth was inactive: 0.974.

`C[C@@H]1CN([C@H](C)CO)C(=O)c2cc(NC(=O)Cc3ccccc3)ccc2O[C@H]1CN(C)S(C)(=O)=O` was tested. Which relative growth did it give?
Its relative growth is inactive: 0.991.

For `CCCCCN1CC=C[C@@]23O[C@@H]4C=CCOC(=O)[C@@H]4[C@H]2C(=O)N(CCO)[C@@H]3C1=O`, which relative growth is on record?
The relative growth was inactive: 1.05.

With `CC(C)C[C@H]1NC(=O)[C@@H](C)NC(=O)[C@@]23C(=O)N[C@@H](Cc4ccccc4)[C@H]2[C@H](C)[C@@]2(C)O[C@H]2[C@@H]3/C=C/C/C=C\CNC1=O` as the compound, how does the relative growth read?
Its relative growth is inactive: 1.05.

`COc1ccc(S(=O)(=O)Nc2ccc3c(c2)C(=O)N([C@H](C)CO)C[C@@H](C)[C@@H](CN(C)S(=O)(=O)c2ccc(Cl)cc2)OCCCC[C@H](C)O3)cc1` was tested. Which relative growth did it give?
The relative growth was inactive: 1.02.

Which relative growth does the source give for `C[C@@H]1CN([C@H](C)CO)C(=O)c2cc(NS(=O)(=O)c3cn(C)cn3)ccc2O[C@H]1CN(C)Cc1ccc(C(=O)Nc2ccccc2N)cc1` here?
The relative growth was inactive: 1.01.

With `C[C@H](CO)N1C[C@H](C)[C@H](CN(C)C(=O)Nc2ccc(C(F)(F)F)cc2)Oc2ncc(C3=CCCC3)cc2C1=O` as the compound, how does the relative growth read?
The relative growth was inactive: 0.965.
